Results: patent publication US20230235090A1 (HARBOUR BIOMED US, published 2023)

T1: human B7-H4 (human, UniProt Q7Z7D3 25-282)
T1 construct: whole, on cells; also called VTCN1; SK-BR-3 cell line highly expressing B7-H4
T1 sequence (looked up): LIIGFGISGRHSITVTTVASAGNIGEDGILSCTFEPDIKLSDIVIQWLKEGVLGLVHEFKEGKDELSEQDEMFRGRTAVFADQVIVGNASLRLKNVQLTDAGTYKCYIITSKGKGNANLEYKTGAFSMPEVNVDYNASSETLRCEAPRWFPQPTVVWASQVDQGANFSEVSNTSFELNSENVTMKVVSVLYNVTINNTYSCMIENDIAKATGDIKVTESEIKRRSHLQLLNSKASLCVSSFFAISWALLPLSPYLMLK


How the values were obtained:
human 4-1BB = target: T2, human 4-1BB (human, UniProt Q07011 24-255); assay: FACS, CHO-K1/h4-1BB cells [D]
human 4-1BB, sequence (Q07011 24-255): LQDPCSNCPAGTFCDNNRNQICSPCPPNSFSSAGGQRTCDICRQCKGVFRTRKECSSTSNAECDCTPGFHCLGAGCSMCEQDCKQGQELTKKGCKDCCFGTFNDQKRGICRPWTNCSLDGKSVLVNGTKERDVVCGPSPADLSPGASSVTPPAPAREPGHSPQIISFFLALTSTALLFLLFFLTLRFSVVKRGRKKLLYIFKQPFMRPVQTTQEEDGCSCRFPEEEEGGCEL
T2 construct: whole, on cells; also called CD137; TNFRSF9

cynomolgus monkey 4-1BB [1] = target: T3, cynomolgus monkey 4-1BB (cynomolgus monkey); assay: FACS, CHO-K1/cyno 4-1BB cells [B]
T3 construct: whole, on cells; also called CHO-K1-cyno 4-1BB; CHO-K1/cyno4-1BB

cynomolgus monkey 4-1BB [2] = target: T3, cynomolgus monkey 4-1BB; assay: FACS, CHO-K1/cyno 4-1BB cells [A]
human B7-H4 = target: T1, human B7-H4; assay: FACS, SK-BR-3 cells [A]

| Binder | EC50 (human 4-1BB) | Maximum MFI (human 4-1BB) | EC50 (cynomolgus monkey 4-1BB [1]) | Maximum MFI (cynomolgus monkey 4-1BB [1]) | EC50 (cynomolgus monkey 4-1BB [2]) | Maximum MFI (cynomolgus monkey 4-1BB [2]) | EC50 (human B7-H4) | Maximum MFI (human B7-H4) |
| --- | --- | --- | --- | --- | --- | --- | --- | --- |
| PR002802 (bispecific antibody, human IgG1, kappa, L234A L235A, IgG-VH tetravalent symmetric; PR001476 IgG x PR001830 VH; IgG1 (L234A, L235A, P329G)) light: EIVMTQSPATLSVSPGERATLSCRASQSISSNLGWYQQKPGQAPRLLIYGASTRATGIPARFSGSGSGTEFTLTISSLQSEDFAVYYCQQYNSWPPLTFGGGTKVEIKRTVAAPSVFIFPPSDEQLKSGTASVVCLLNNFYPREAKVQWKVDNALQSGNSQESVTEQDSKDSTYSLSSTLTLSKADYEKHKVYACEVTHQGLSSPVTKSFNRGEC heavy: QVQLVESGGGVVQPGRSLRLSCAASGFTFRSFGMHWVRQAPGKGLEWVAVISYDGSNEYYADSVKGRFIISRDNSKDTLYLQMNSLRAGDTAVYYCAKGGGLRWYFAYWGQGTLVTVSSASTKGPSVFPLAPSSKSTSGGTAALGCLVKDYFPEPVTVSWNSGALTSGVHTFPAVLQSSGLYSLSSVVTVPSSSLGTQTYICNVNHKPSNTKVDKKVEPKSCDKTHTCPPCPAPEAAGGPSVFLFPPKPKDTLMISRTPEVTCVVVDVSHEDPEVKFNWYVDGVEVHNAKTKPREEQYNSTYRVVSVLTVLHQDWLNGKEYKCKVSNKALGAPIEKTISKAKGQPREPQVYTLPPSREEMTKNQVSLTCLVKGFYPSDIAVEWESNGQPENNYKTTPPVLDSDGSFFLYSKLTVDKSRWQQGNVFSCSVMHEALHNHYTQKSLSLSPGEPKSSDKTHTPPPPPRTEVQLLESGGGLVQPGGSLRLSCTASGFTFSNYAMSWVRQAPEKGLEWVSSISGSGGSTFYADSVKGRFTISRDNSKNTLYLQMNSLRAEDTAVYFCAKEGSSETDDHYYNVDVWGQGTTVTVSS |  |  |  |  | 3340 pM | 31300 MFI | 499 pM | 49900 MFI |
| PR002791 (bispecific antibody, human IgG1, kappa, L234A L235A, IgG-VH tetravalent symmetric; PR001476 IgG x PR001760 VH; IgG1 (L234A, L235A, P329G)) light: EIVMTQSPATLSVSPGERATLSCRASQSISSNLGWYQQKPGQAPRLLIYGASTRATGIPARFSGSGSGTEFTLTISSLQSEDFAVYYCQQYNSWPPLTFGGGTKVEIKRTVAAPSVFIFPPSDEQLKSGTASVVCLLNNFYPREAKVQWKVDNALQSGNSQESVTEQDSKDSTYSLSSTLTLSKADYEKHKVYACEVTHQGLSSPVTKSFNRGEC heavy: QVQLVESGGGVVQPGRSLRLSCAASGFTFRSFGMHWVRQAPGKGLEWVAVISYDGSNEYYADSVKGRFIISRDNSKDTLYLQMNSLRAGDTAVYYCAKGGGLRWYFAYWGQGTLVTVSSASTKGPSVFPLAPSSKSTSGGTAALGCLVKDYFPEPVTVSWNSGALTSGVHTFPAVLQSSGLYSLSSVVTVPSSSLGTQTYICNVNHKPSNTKVDKKVEPKSCDKTHTCPPCPAPEAAGGPSVFLFPPKPKDTLMISRTPEVTCVVVDVSHEDPEVKFNWYVDGVEVHNAKTKPREEQYNSTYRVVSVLTVLHQDWLNGKEYKCKVSNKALGAPIEKTISKAKGQPREPQVYTLPPSREEMTKNQVSLTCLVKGFYPSDIAVEWESNGQPENNYKTTPPVLDSDGSFFLYSKLTVDKSRWQQGNVFSCSVMHEALHNHYTQKSLSLSPGEPKSSDKTHTPPPPPRTEVQLVESGGGVVQPGGSLRLSCAASGFTFSNYAMTWVRQAPEKGLEWVSSISGSGVSTYYADSVKGRFTISRDNSKNTLYLQMTRLTAEDTAVYFCAKEGSSETDDHYYNVDVWGQGTTVTVSS |  |  |  |  | 844 pM | 23900 MFI | 554 pM | 53400 MFI |
| PR002804 (bispecific antibody, human IgG1, kappa, L234A L235A, IgG-VH tetravalent symmetric; PR001476 IgG x PR001833 VH; IgG1 (L234A, L235A, P329G)) light: EIVMTQSPATLSVSPGERATLSCRASQSISSNLGWYQQKPGQAPRLLIYGASTRATGIPARFSGSGSGTEFTLTISSLQSEDFAVYYCQQYNSWPPLTFGGGTKVEIKRTVAAPSVFIFPPSDEQLKSGTASVVCLLNNFYPREAKVQWKVDNALQSGNSQESVTEQDSKDSTYSLSSTLTLSKADYEKHKVYACEVTHQGLSSPVTKSFNRGEC heavy: QVQLVESGGGVVQPGRSLRLSCAASGFTFRSFGMHWVRQAPGKGLEWVAVISYDGSNEYYADSVKGRFIISRDNSKDTLYLQMNSLRAGDTAVYYCAKGGGLRWYFAYWGQGTLVTVSSASTKGPSVFPLAPSSKSTSGGTAALGCLVKDYFPEPVTVSWNSGALTSGVHTFPAVLQSSGLYSLSSVVTVPSSSLGTQTYICNVNHKPSNTKVDKKVEPKSCDKTHTCPPCPAPEAAGGPSVFLFPPKPKDTLMISRTPEVTCVVVDVSHEDPEVKFNWYVDGVEVHNAKTKPREEQYNSTYRVVSVLTVLHQDWLNGKEYKCKVSNKALGAPIEKTISKAKGQPREPQVYTLPPSREEMTKNQVSLTCLVKGFYPSDIAVEWESNGQPENNYKTTPPVLDSDGSFFLYSKLTVDKSRWQQGNVFSCSVMHEALHNHYTQKSLSLSPGEPKSSDKTHTPPPPPRTEVQLLESGGGLVQPGGSLRLSCAASGFTFSSYAMSWVRQAPEKGLEWVSSISGSGGSTFYADSVKGRFTISRDNSKNTLYLQMNSLRAEDTAVYFCAKEGATETDDYHFNTDVWGQGTTVTVSS |  |  |  |  | 705 pM | 28200 MFI | 615 pM | 53300 MFI |

The remaining lines, values ahead:

| EC50 (human 4-1BB) | Maximum MFI (human 4-1BB) | EC50 (cynomolgus monkey 4-1BB [1]) | Maximum MFI (cynomolgus monkey 4-1BB [1]) | EC50 (cynomolgus monkey 4-1BB [2]) | Maximum MFI (cynomolgus monkey 4-1BB [2]) | EC50 (human B7-H4) | Maximum MFI (human B7-H4) | Binder |
| --- | --- | --- | --- | --- | --- | --- | --- | --- |
| 483 pM | 163000 MFI | 658 pM | 22600 MFI |  |  |  |  | PR003334 (bispecific antibody, human IgG1, kappa, IgG-VH tetravalent symmetric; PR002408 IgG x PR001758 VH; linker H1_15-RT; IgG1 (L234A, L235A); also called PR0003334) light: EIVMTQSPATLSVSPGERATLSCRASQSISSNLGWYQQKPGQAPRLLIYGASTRATGIPARFSGSGSGTEFTLTISSLQSEDFAVYYCQQYQSWPPLTFGGGTKVEIKRTVAAPSVFIFPPSDEQLKSGTASVVCLLNNFYPREAKVQWKVDNALQSGNSQESVTEQDSKDSTYSLSSTLTLSKADYEKHKVYACEVTHQGLSSPVTKSFNRGEC heavy: QVQLVESGGGVVQPGRSLRLSCAASGFTFRSFGMHWVRQAPGKGLEWVAVISYDASNEYYADSVKGRFIISRDNSKDTLYLQMNSLRAGDTAVYYCAKGGGLRWYFAYWGQGTLVTVSSASTKGPSVFPLAPSSKSTSGGTAALGCLVKDYFPEPVTVSWNSGALTSGVHTFPAVLQSSGLYSLSSVVTVPSSSLGTQTYICNVNHKPSNTKVDKKV[letters of human IgG1 Fc with changes not shown]EPKSSDKTHTPPPPPRTEVQLLESGGGLVQLGGSLRLSCAASGFTFSRYAMTWVRQAPEKGLEWVSSISGSGDDTYYGDSVKGRFTISRDNSQNTVYLQMNSLRAEDTAVYFCAKEKAGTTGDYYYNVDVWGQGTTVTVSS |
| 740 pM | 173000 MFI | 797 pM | 24400 MFI |  |  |  |  | PR003335 (bispecific antibody, human IgG1, kappa, IgG-VH tetravalent symmetric; PR002408 IgG x PR001760 VH; linker H1_15-RT; IgG1 (L234A, L235A); also called PR0003335) light: EIVMTQSPATLSVSPGERATLSCRASQSISSNLGWYQQKPGQAPRLLIYGASTRATGIPARFSGSGSGTEFTLTISSLQSEDFAVYYCQQYQSWPPLTFGGGTKVEIKRTVAAPSVFIFPPSDEQLKSGTASVVCLLNNFYPREAKVQWKVDNALQSGNSQESVTEQDSKDSTYSLSSTLTLSKADYEKHKVYACEVTHQGLSSPVTKSFNRGEC heavy: QVQLVESGGGVVQPGRSLRLSCAASGFTFRSFGMHWVRQAPGKGLEWVAVISYDASNEYYADSVKGRFIISRDNSKDTLYLQMNSLRAGDTAVYYCAKGGGLRWYFAYWGQGTLVTVSSASTKGPSVFPLAPSSKSTSGGTAALGCLVKDYFPEPVTVSWNSGALTSGVHTFPAVLQSSGLYSLSSVVTVPSSSLGTQTYICNVNHKPSNTKVDKKV[letters of human IgG1 Fc with changes not shown]EPKSSDKTHTPPPPPRTEVQLVESGGGVVQPGGSLRLSCAASGFTFSNYAMTWVRQAPEKGLEWVSSISGSGVSTYYADSVKGRFTISRDNSKNTLYLQMTRLTAEDTAVYFCAKEGSSETDDHYYNVDVWGQGTTVTVSS |
| 500 pM | 166000 MFI | 443 pM | 22100 MFI |  |  |  |  | PR003336 (bispecific antibody, human IgG1, kappa, IgG-VH tetravalent symmetric; PR002408 IgG x PR001830 VH; IgG1 (L234A, L235A)) light: EIVMTQSPATLSVSPGERATLSCRASQSISSNLGWYQQKPGQAPRLLIYGASTRATGIPARFSGSGSGTEFTLTISSLQSEDFAVYYCQQYQSWPPLTFGGGTKVEIKRTVAAPSVFIFPPSDEQLKSGTASVVCLLNNFYPREAKVQWKVDNALQSGNSQESVTEQDSKDSTYSLSSTLTLSKADYEKHKVYACEVTHQGLSSPVTKSFNRGEC heavy: QVQLVESGGGVVQPGRSLRLSCAASGFTFRSFGMHWVRQAPGKGLEWVAVISYDASNEYYADSVKGRFIISRDNSKDTLYLQMNSLRAGDTAVYYCAKGGGLRWYFAYWGQGTLVTVSSASTKGPSVFPLAPSSKSTSGGTAALGCLVKDYFPEPVTVSWNSGALTSGVHTFPAVLQSSGLYSLSSVVTVPSSSLGTQTYICNVNHKPSNTKVDKKV[letters of human IgG1 Fc with changes not shown]EPKSSDKTHTPPPPPRTEVQLLESGGGLVQPGGSLRLSCTASGFTFSNYAMSWVRQAPEKGLEWVSSISGSGGSTFYADSVKGRFTISRDNSKNTLYLQMNSLRAEDTAVYFCAKEGSSETDDHYYNVDVWGQGTTVTVSS |
| 722 pM | 166000 MFI | 631 pM | 22500 MFI |  |  |  |  | PR003337 (bispecific antibody, human IgG1, kappa, IgG-VH tetravalent symmetric; PR002408 IgG x PR001833 VH; IgG1 (L234A, L235A)) light: EIVMTQSPATLSVSPGERATLSCRASQSISSNLGWYQQKPGQAPRLLIYGASTRATGIPARFSGSGSGTEFTLTISSLQSEDFAVYYCQQYQSWPPLTFGGGTKVEIKRTVAAPSVFIFPPSDEQLKSGTASVVCLLNNFYPREAKVQWKVDNALQSGNSQESVTEQDSKDSTYSLSSTLTLSKADYEKHKVYACEVTHQGLSSPVTKSFNRGEC heavy: QVQLVESGGGVVQPGRSLRLSCAASGFTFRSFGMHWVRQAPGKGLEWVAVISYDASNEYYADSVKGRFIISRDNSKDTLYLQMNSLRAGDTAVYYCAKGGGLRWYFAYWGQGTLVTVSSASTKGPSVFPLAPSSKSTSGGTAALGCLVKDYFPEPVTVSWNSGALTSGVHTFPAVLQSSGLYSLSSVVTVPSSSLGTQTYICNVNHKPSNTKVDKKV[letters of human IgG1 Fc with changes not shown]EPKSSDKTHTPPPPPRTEVQLLESGGGLVQPGGSLRLSCAASGFTFSSYAMSWVRQAPEKGLEWVSSISGSGGSTFYADSVKGRFTISRDNSKNTLYLQMNSLRAEDTAVYFCAKEGATETDDYHFNTDVWGQGTTVTVSS |
